A lower IC50 marks a more sensitive line; where the fit passes the top or lowest dose, that dose stands as a limit. AUC is the area under the same curve over the 256-fold range up to the top dose, as a fraction; it is 1 without any effect and falls as sensitivity rises. Where the top dose is marked as inferred, it was derived from the fitted curves, not read from the paper.
Experiments:
FR-180204 = compound: Nc1[nH]nc2nnc(-c3c(-c4ccccc4)nn4ccccc34)cc12 [FR-180204]; test: Viability of human cancer cell lines after 72 h of drug (GDSC screen); settings: top dose 20 µM; top dose inferred
Experimental: (§1)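 Human cancer cell lines in 384-well plates, medium with 10% serum, drug for 72 h over a 256-fold dose range (nine 2-fold or five 4-fold steps up to the top dose). Adherent lines were fixed and stained with the nucleic acid dye Syto60, suspension lines read with resazurin; signal relative to control wells, capped at 0 and 100%. One two-parameter sigmoid per drug and line, fitted in a mixed model over all curves with the slope shared within a line.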

FK866 = compound: O=C(/C=C/c1cccnc1)NCCCCC1CCN(C(=O)c2ccccc2)CC1 [FK866]; test: as above; settings: top dose 1 µM; top dose inferred
Experimental: as §1

| Cell Line | AUC (FR-180204) | IC50 (FR-180204) [µM] | AUC (FK866) | IC50 (FK866) [µM] |
| --- | --- | --- | --- | --- |
| 201T (lung adenocarcinoma, adherent) | 0.951 | > 20 |  |  |
| A2058 (melanoma, adherent) | 0.99 | > 20 |  |  |
| A2780 (ovary, semi-adherent) | 0.925 | > 20 |  |  |
| AGS (stomach, adherent) | 0.988 | > 20 |  |  |
| AU565 (breast, adherent) | 0.969 | > 20 |  |  |
| BALL-1 (B-cell leukaemia, suspension) |  |  | 0.008 | < 0.00391 |
| BB30-HNC (head and neck, adherent) | 0.963 | > 20 |  |  |
| BC-3 (B-cell lymphoma, suspension) | 0.98 | > 20 |  |  |
| BICR31 (head and neck, adherent) | 0.971 | > 20 |  |  |
| BT-549 (breast, adherent) |  |  | 0.689 | 0.263 |
| CAL-148 (breast, suspension) | 0.987 | > 20 |  |  |
| CAPAN-1 (pancreas, adherent) | 0.953 | > 20 |  |  |
| CHP-134 (neuroblastoma, suspension) | 0.965 | > 20 |  |  |
| CL-34 (large intestine, adherent) |  |  | 0.891 | > 1 |
| CL-40 (large intestine, adherent) |  |  | 0.915 | > 1 |
| CML-T1 (chronic myeloid leukaemia, suspension) |  |  | 0.033 | < 0.00391 |
| COR-L32 (small cell lung carcinoma, suspension) |  |  | 0.359 | 0.0169 |
| COR-L303 (small cell lung carcinoma, suspension) | 0.97 | > 20 |  |  |
| COR-L311 (small cell lung carcinoma, suspension) | 0.984 | > 20 |  |  |
| CRO-AP2 (B-cell lymphoma, suspension) |  |  | 0.042 | < 0.00391 |
| CTV-1 (acute myeloid leukaemia, suspension) | 0.976 | > 20 |  |  |
| Calu-3 (lung adenocarcinoma, adherent) | 0.983 | > 20 |  |  |
| Caov-3 (ovary, adherent) | 0.97 | > 20 |  |  |
| DIFI (large intestine, adherent) |  |  | 0.4 | 0.0327 |
| DJM-1 (skin, adherent) | 0.981 | > 20 |  |  |

| Cell Line | AUC (FR-180204) | IC50 (FR-180204) [µM] | AUC (FK866) | IC50 (FK866) [µM] |
| --- | --- | --- | --- | --- |
| EHEB (lymphoid neoplasm, suspension) |  |  | 0.41 | 0.0318 |
| ES-2 (ovary, adherent) | 0.991 | > 20 |  |  |
| EW-11 (Ewing sarcoma, adherent) | 0.911 | > 20 |  |  |
| EW-22 (Ewing sarcoma, adherent) |  |  | 0.151 | 0.00553 |
| FADU (head and neck, adherent) | 0.986 | > 20 |  |  |
| GA-10 (Burkitt lymphoma, suspension) |  |  | 0.04 | < 0.00391 |
| GCIY (stomach, adherent) | 0.971 | > 20 |  |  |
| H290 (mesothelioma, adherent) |  |  | 0.988 | > 1 |
| H2810 (mesothelioma, adherent) |  |  | 0.803 | 0.559 |
| H-EMC-SS (chondrosarcoma, adherent) | 0.931 | > 20 |  |  |
| HCC1599 (breast, suspension) | 0.958 | > 20 |  |  |
| HCC-33 (small cell lung carcinoma, adherent) | 0.986 | > 20 |  |  |
| HCC-366 (non-small cell lung carcinoma, adherent) |  |  | 0.61 | 0.127 |
| Hep 3B2_1-7 (liver, adherent) | 0.985 | > 20 |  |  |
| HuP-T4 (pancreas, adherent) | 0.983 | > 20 |  |  |
| IGR-1 (melanoma, adherent) | 0.981 | > 20 |  |  |
| IGROV-1 (ovary, adherent) |  |  | 0.665 | 0.224 |
| JHU-011 (head and neck, adherent) | 0.971 | > 20 |  |  |
| JSC-1 (B-cell lymphoma, suspension) | 0.964 | > 20 |  |  |
| KMS-12-BM (myeloma, suspension) | 0.971 | > 20 |  |  |
| KP-3 (pancreas, adherent) | 0.968 | > 20 |  |  |
| KP-N-YS (neuroblastoma, adherent) | 0.969 | > 20 |  |  |
| KYSE-140 (oesophagus, adherent) | 0.911 | > 20 |  |  |
| KYSE-150 (oesophagus, adherent) | 0.979 | > 20 |  |  |
| KYSE-410 (oesophagus, adherent) | 0.982 | > 20 |  |  |

| Cell Line | AUC (FR-180204) | IC50 (FR-180204) [µM] | AUC (FK866) | IC50 (FK866) [µM] |
| --- | --- | --- | --- | --- |
| LK-2 (lung squamous cell carcinoma, adherent) | 0.989 | > 20 |  |  |
| MDA-MB-157 (breast, adherent) | 0.987 | > 20 |  |  |
| MDA-MB-468 (breast, adherent) | 0.985 | > 20 |  |  |
| MHH-NB-11 (neuroblastoma, adherent) | 0.936 | > 20 |  |  |
| MIA-PaCa-2 (pancreas, adherent) | 0.982 | > 20 |  |  |
| MKN28 (stomach, adherent) | 0.953 | > 20 |  |  |
| ML-2 (acute myeloid leukaemia, suspension) | 0.936 | > 20 |  |  |
| MSTO-211H (mesothelioma, adherent) | 0.991 | > 20 |  |  |
| MY-M12 (leukaemia, suspension) | 0.829 | 14.7 |  |  |
| NALM-6 (B-cell leukaemia, suspension) | 0.911 | > 20 |  |  |
| NB14 (neuroblastoma, adherent) | 0.968 | > 20 |  |  |
| NB17 (neuroblastoma, adherent) | 0.964 | > 20 |  |  |
| NB69 (neuroblastoma, adherent) | 0.956 | > 20 |  |  |
| NCI-H64 (small cell lung carcinoma, suspension) | 0.995 | > 20 |  |  |
| NCI-H82 (small cell lung carcinoma, suspension) | 0.985 | > 20 |  |  |
| NCI-H510A (small cell lung carcinoma, semi-adherent) | 0.967 | > 20 |  |  |
| NCI-H647 (non-small cell lung carcinoma, adherent) | 0.97 | > 20 |  |  |
| NCI-H748 (small cell lung carcinoma, suspension) | 0.981 | > 20 |  |  |
| NCI-H1734 (lung adenocarcinoma, adherent) | 0.98 | > 20 |  |  |
| NCI-H1963 (small cell lung carcinoma, suspension) | 0.99 | > 20 |  |  |
| NCI-H2052 (mesothelioma, adherent) | 0.976 | > 20 |  |  |
| NCI-H2171 (small cell lung carcinoma, suspension) | 0.992 | > 20 |  |  |
| NCI-H2196 (small cell lung carcinoma, adherent) | 0.947 | > 20 |  |  |
| NCI-H3122 (lung adenocarcinoma, adherent) | 0.974 | > 20 |  |  |
| NCI-SNU-16 (stomach, suspension) | 0.991 | > 20 |  |  |

| Cell Line | AUC (FR-180204) | IC50 (FR-180204) [µM] | AUC (FK866) | IC50 (FK866) [µM] |
| --- | --- | --- | --- | --- |
| NOMO-1 (acute myeloid leukaemia, suspension) | 0.948 | > 20 |  |  |
| OCUM-1 (stomach, adherent) | 0.977 | > 20 |  |  |
| PA-1 (ovary, adherent) | 0.961 | > 20 |  |  |
| PFSK-1 (medulloblastoma, adherent) | 0.98 | > 20 |  |  |
| RCC10RGB (kidney, adherent) | 0.928 | > 20 |  |  |
| RPMI-7951 (melanoma, adherent) | 0.974 | > 20 |  |  |
| RPMI-8226 (myeloma, suspension) | 0.973 | > 20 |  |  |
| SAT (head and neck, adherent) | 0.965 | > 20 |  |  |
| SCC-3 (B-cell lymphoma, suspension) | 0.997 | > 20 |  |  |
| SIG-M5 (acute myeloid leukaemia, suspension) | 0.474 | 1.08 |  |  |
| SNU-175 (large intestine, suspension) | 0.917 | > 20 |  |  |
| SNU-475 (liver, adherent) | 0.991 | > 20 |  |  |
| SU-DHL-1 (anaplastic large cell lymphoma, suspension) | 0.997 | > 20 |  |  |
| SU-DHL-8 (B-cell lymphoma, suspension) | 0.988 | > 20 |  |  |
| SUP-B15 (lymphoblastic leukaemia, suspension) | 0.89 | > 20 |  |  |
| SW954 (urogenital system, adherent) | 0.965 | > 20 |  |  |
| TALL-1 (T-cell lymphoblastic leukaemia, suspension) | 0.988 | > 20 |  |  |
| TE-441-T (rhabdomyosarcoma, adherent) | 0.97 | > 20 |  |  |
| UACC-812 (breast, adherent) | 0.975 | > 20 |  |  |
| UACC-893 (breast, adherent) | 0.977 | > 20 |  |  |
| VMRC-RCW (kidney, adherent) | 0.979 | > 20 |  |  |
| YMB-1-E (breast, adherent) | 0.971 | > 20 |  |  |

From the supplement of paper PMC4967469
